As a reminder, the EC50 is the midpoint of the concentration-response curve.

Drawing on patent US20230250147A1, “GLP-1R AGONISTIC PEPTIDES WITH REDUCED ACTIVITY” (SANOFI, priority 2020, published 2023), this text covers EC50 for 12 molecules.

Sequences and labels used below:
B1: 199 (protein)
chain: HGEGTFTSDLSKQLEKELVRLFYEWLKAGGHSSGKPPPKGGGGGGGSGGGGSGGGGSA[… human IgG4 Fc with changes …]GGGSGSAHPIPDSSPLLQFGGQVRQRYLYTDDACQTEAHLEIREDGTVGGAADQSPESLLQLKALKPGVIQILGVKTSRFLCQRPDGALYGSLHFDPEACSFRELLLEDGYNVYQSEAHGLPLHLPGCKSPHRDPAPRGPARFLPLPGLPPAPPEPPGILAPQPPDVGSSDPLSMVGSQGRSPSYAS
modifications: Fusion Protein
B2: 188 (protein)
chain: HGEGTFTSDLSIQLAKRLAQLFIEWLIKGGHSSGKPPPKGGGGGGGSGGGGSGGGGSA[… human IgG4 Fc with changes …]GGGSGSAHPIPDSSPLLQFGGQVRQRYLYTDDACQTEAHLEIREDGTVGGAADQSPESLLQLKALKPGVIQILGVKTSRFLCQRPDGALYGSLHFDPEACSFRELLLEDGYNVYQSEAHGLPLHLPGCKSPHRDPAPRGPARFLPLPGLPPAPPEPPGILAPQPPDVGSSDPLSMVGSQGRSPSYAS
modifications: Fusion Protein
B3: 192 (protein)
chain: HGEGTFTSDLSKQLEERLARLFYEWLIAGGHSSQKPPPKGGGGGGGSGGGGSGGGGSA[… human IgG4 Fc with changes …]GGGSGSAHPIPDSSPLLQFGGQVRQRYLYTDDACQTEAHLEIREDGTVGGAADQSPESLLQLKALKPGVIQILGVKTSRFLCQRPDGALYGSLHFDPEACSFRELLLEDGYNVYQSEAHGLPLHLPGCKSPHRDPAPRGPARFLPLPGLPPAPPEPPGILAPQPPDVGSSDPLSMVGSQGRSPSYAS
modifications: Fusion Protein
B4: 197 (protein)
chain: HGEGTFTSDLSKQLEKELVRLFYEWLINGGHSSGKPPPKGGGGGGGSGGGGSGGGGSA[… human IgG4 Fc with changes …]GGGSGSAHPIPDSSPLLQFGGQVRQRYLYTDDACQTEAHLEIREDGTVGGAADQSPESLLQLKALKPGVIQILGVKTSRFLCQRPDGALYGSLHFDPEACSFRELLLEDGYNVYQSEAHGLPLHLPGCKSPHRDPAPRGPARFLPLPGLPPAPPEPPGILAPQPPDVGSSDPLSMVGSQGRSPSYAS
modifications: Fusion Protein
B5: 205 (protein)
chain: HGEGTFTSDLSKQLEKELVRLFYEWLIAGGHKSQKPPPKGGGGGGGSGGGGSGGGGSA[… human IgG4 Fc with changes …]GGGSGSAHPIPDSSPLLQFGGQVRQRYLYTDDACQTEAHLEIREDGTVGGAADQSPESLLQLKALKPGVIQILGVKTSRFLCQRPDGALYGSLHFDPEACSFRELLLEDGYNVYQSEAHGLPLHLPGCKSPHRDPAPRGPARFLPLPGLPPAPPEPPGILAPQPPDVGSSDPLSMVGSQGRSPSYAS
modifications: Fusion Protein
B6: 203 (protein)
chain: HGEGTFTSDLSKQLEKELVRLFYEWLIKGGHKSGKPPPKGGGGGGGSGGGGSGGGGSA[… human IgG4 Fc with changes …]GGGSGSAHPIPDSSPLLQFGGQVRQRYLYTDDACQTEAHLEIREDGTVGGAADQSPESLLQLKALKPGVIQILGVKTSRFLCQRPDGALYGSLHFDPEACSFRELLLEDGYNVYQSEAHGLPLHLPGCKSPHRDPAPRGPARFLPLPGLPPAPPEPPGILAPQPPDVGSSDPLSMVGSQGRSPSYAS
modifications: Fusion Protein
B7: 194 (protein)
chain: HGEGTFTSDLSKQLEKELVRLFYEWLINGGHKSGKPPPKGGGGGGGSGGGGSGGGGSA[… human IgG4 Fc with changes …]GGGSGSAHPIPDSSPLLQFGGQVRQRYLYTDDACQTEAHLEIREDGTVGGAADQSPESLLQLKALKPGVIQILGVKTSRFLCQRPDGALYGSLHFDPEACSFRELLLEDGYNVYQSEAHGLPLHLPGCKSPHRDPAPRGPARFLPLPGLPPAPPEPPGILAPQPPDVGSSDPLSMVGSQGRSPSYAS
modifications: Fusion Protein
B8: 198 (protein)
chain: HGEGTFTSDLSKQLEKELVRLFYEWLIAGGHSSQRPPPKGGGGGGGSGGGGSGGGGSA[… human IgG4 Fc with changes …]GGGSGSAHPIPDSSPLLQFGGQVRQRYLYTDDACQTEAHLEIREDGTVGGAADQSPESLLQLKALKPGVIQILGVKTSRFLCQRPDGALYGSLHFDPEACSFRELLLEDGYNVYQSEAHGLPLHLPGCKSPHRDPAPRGPARFLPLPGLPPAPPEPPGILAPQPPDVGSSDPLSMVGSQGRSPSYAS
modifications: Fusion Protein
B9: 193 (protein)
chain: HGEGTFTSDLSKQLEKELVRLFYEWLINGGHSSQKPPPKGGGGGGGSGGGGSGGGGSA[… human IgG4 Fc with changes …]GGGSGSAHPIPDSSPLLQFGGQVRQRYLYTDDACQTEAHLEIREDGTVGGAADQSPESLLQLKALKPGVIQILGVKTSRFLCQRPDGALYGSLHFDPEACSFRELLLEDGYNVYQSEAHGLPLHLPGCKSPHRDPAPRGPARFLPLPGLPPAPPEPPGILAPQPPDVGSSDPLSMVGSQGRSPSYAS
modifications: Fusion Protein
B10: 207 (protein)
chain: HGEGTFTSDLSKQLEKRLVRLFYEWLKNGGHSSGKPPPKGGGGGGGSGGGGSGGGGSA[… human IgG4 Fc with changes …]GGGSGSAHPIPDSSPLLQFGGQVRQRYLYTDDACQTEAHLEIREDGTVGGAADQSPESLLQLKALKPGVIQILGVKTSRFLCQRPDGALYGSLHFDPEACSFRELLLEDGYNVYQSEAHGLPLHLPGCKSPHRDPAPRGPARFLPLPGLPPAPPEPPGILAPQPPDVGSSDPLSMVGSQGRSPSYAS
modifications: Fusion Protein
B11: 201 (protein)
chain: HGEGTFTSDLSKQLEKELVRLFYEWLIKGGHSSQKPPPKGGGGGGGSGGGGSGGGGSA[… human IgG4 Fc with changes …]GGGSGSAHPIPDSSPLLQFGGQVRQRYLYTDDACQTEAHLEIREDGTVGGAADQSPESLLQLKALKPGVIQILGVKTSRFLCQRPDGALYGSLHFDPEACSFRELLLEDGYNVYQSEAHGLPLHLPGCKSPHRDPAPRGPARFLPLPGLPPAPPEPPGILAPQPPDVGSSDPLSMVGSQGRSPSYAS
modifications: Fusion Protein
B12: 187 (protein)
chain: HGEGTFTSDLSKQLAERLVRLFIEWLIKGGHSSGKPPPKGGGGGGGSGGGGSGGGGSA[… human IgG4 Fc with changes …]GGGSGSAHPIPDSSPLLQFGGQVRQRYLYTDDACQTEAHLEIREDGTVGGAADQSPESLLQLKALKPGVIQILGVKTSRFLCQRPDGALYGSLHFDPEACSFRELLLEDGYNVYQSEAHGLPLHLPGCKSPHRDPAPRGPARFLPLPGLPPAPPEPPGILAPQPPDVGSSDPLSMVGSQGRSPSYAS
modifications: Fusion Protein

T1 sequence (F8V479 24-463): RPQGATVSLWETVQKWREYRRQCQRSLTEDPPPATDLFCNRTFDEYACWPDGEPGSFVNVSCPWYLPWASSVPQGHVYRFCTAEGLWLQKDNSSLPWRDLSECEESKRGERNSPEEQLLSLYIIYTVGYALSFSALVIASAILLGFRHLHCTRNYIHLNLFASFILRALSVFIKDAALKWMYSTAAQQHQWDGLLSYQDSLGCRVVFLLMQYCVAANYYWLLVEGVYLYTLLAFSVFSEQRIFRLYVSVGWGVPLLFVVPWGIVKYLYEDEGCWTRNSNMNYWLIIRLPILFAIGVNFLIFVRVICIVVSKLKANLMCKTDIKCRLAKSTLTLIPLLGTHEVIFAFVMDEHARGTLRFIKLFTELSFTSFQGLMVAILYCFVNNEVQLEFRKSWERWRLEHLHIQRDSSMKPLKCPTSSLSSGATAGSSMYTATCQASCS

One test addresses T1, Monkey GLP-1R (Macaca fascicularis, UniProt F8V479).
T1 construct: expressed in transfected cells; host or cells: HEK-293
Description: HTRF cAMP assay in HEK-293 cells, monkey GLP-1R. It counts as cell-based. The procedure:
(§1) Recombinant HEK-293 cells were grown in T175 culture flasks placed at 37° C. to near confluence in medium (DMEM with 10% FBS) and collected in 2 mL vials in cell culture medium containing 10% DMSO in concentrations of 1-5×10^7 cells/mL. Each vial contained 1.8 mL cell suspension. The vials were slowly frozen to −80° C. in an isopropanol chamber, and then transferred to liquid nitrogen for long term storage.
(§2) Prior to their use, frozen cells were thawed quickly at 37° C., washed with 20 mL cell buffer (1×HBSS; 20 mM HEPES, 0.1% BSA) and centrifuged for 5 minutes at 900 rpm. Cells were resuspended in assay buffer (cell buffer plus 2 mM IBMX) and adjusted to a cell density of 1×10^6 cells/mL. For measurement, 5 μL cell suspension (final 5×10^3 cells/well) and 5 μL of test compound were added to a well of a 384-well plate, followed by incubation for 30 minutes at room temperature. […] The cAMP content of cells was determined using a kit from Cisbio Corp. (cat. no. 62AM4PEC) based on Homogenous Time Resolved Fluorescence (HTRF).
As to B1, a half-maximal response (EC50) required 0.231 nM.

Regarding B2, the EC50 came to 0.0637 nM.

B3 yielded an EC50 of 0.149 nM.

The molecule B4 gave an EC50 of 0.102 nM.

B5 returned a concentration giving a half-maximal response (EC50) of 0.113 nM.

B6 registered an EC50 of 0.102 nM.

As for B7, the EC50 worked out at 0.14 nM.

As for B8, it took 0.0869 nM to reach a half-maximal effect (EC50).

As for B9, a half-maximal effect (EC50) was put at 0.151 nM.

The molecule B10 registered an EC50 of 0.189 nM.

Take B11: a half-maximal response (EC50) required 0.0986 nM.

B12 came in with an EC50 of 0.0632 nM.

The target of the next test is T2, Human GLP-1R (Homo sapiens, UniProt P43220).
T2 construct: expressed in transfected cells; host or cells: HEK-293
T2 sequence (P43220 24-463): as the sequence (F8V479 24-463) above, with N112S, S120F, G202S, V205L, F237L, R241W, V249I counted along it
Description: HTRF cAMP assay in HEK-293 cells, human GLP-1R. It counts as cell-based. On the technique in general: TR-FRET usually uses a lanthanide donor and a delayed reading to cut background.
B1: the EC50 worked out at 0.163 nM.

In the case of B2, the EC50 is 0.0597 nM.

The molecule B3 had an EC50 of 0.102 nM.

The molecule B4 showed an EC50 of 0.0683 nM.

As for B5, a half-maximal response (EC50) required 0.131 nM.

Take B6: a half-maximal response (EC50) required 0.0969 nM.

In turn, B8 displayed an EC50 of 0.0865 nM.

B9 displayed an EC50 of 0.108 nM.

B10 returned an EC50 of 0.147 nM.

For the molecule B11, the EC50 is 0.101 nM.

In the case of B12, the response was half-maximal at 0.0674 nM (EC50).

The next test addresses T3, Mouse GLP-1R (Mus musculus, UniProt O35659).
T3 construct: expressed in transfected cells; host or cells: HEK-293
T3 sequence (O35659 22-463): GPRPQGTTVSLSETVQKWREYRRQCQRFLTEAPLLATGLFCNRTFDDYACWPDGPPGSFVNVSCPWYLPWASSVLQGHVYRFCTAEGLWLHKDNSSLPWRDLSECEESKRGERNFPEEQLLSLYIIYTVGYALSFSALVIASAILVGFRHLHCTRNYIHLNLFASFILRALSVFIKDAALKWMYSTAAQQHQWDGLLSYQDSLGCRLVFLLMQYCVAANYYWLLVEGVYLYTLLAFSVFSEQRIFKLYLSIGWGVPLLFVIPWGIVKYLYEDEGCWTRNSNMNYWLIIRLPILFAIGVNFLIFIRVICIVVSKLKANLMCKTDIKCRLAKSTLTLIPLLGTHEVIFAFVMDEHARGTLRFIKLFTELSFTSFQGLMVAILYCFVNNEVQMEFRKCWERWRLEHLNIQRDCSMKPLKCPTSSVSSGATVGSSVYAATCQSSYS
The test is described as follows: HTRF cAMP assay in HEK-293 cells, mouse GLP-1R. It counts as cell-based. The procedure:
as §1, §2
The molecule B1 had an EC50 of 0.153 nM.

In the case of B2, the EC50 is 0.071 nM.

For the molecule B3, the EC50 was determined as 0.098 nM.

B4 returned an EC50 of 0.048 nM.

Consider B5, for which the EC50 was 0.127 nM.

As for B6, the EC50 turned out to be 0.0892 nM.

As for B7, a half-maximal response (EC50) required 0.129 nM.

As for B8, the EC50 worked out at 0.0651 nM.

For the molecule B9, it took 0.0713 nM to reach a half-maximal effect (EC50).

The molecule B10 displayed an EC50 of 0.128 nM.

B11: the EC50 was found to be 0.0698 nM.

B12 returned an EC50 of 0.0675 nM.
